According to the supplement of paper PMC4604168 (melanoma cell lines):
The other results are listed elsewhere or left out. Many values rest on one well or one pass, so single values are uncertain.

Columns and labels:
Test in all cases: cell count relative to DMSO control; melanoma cells; higher = more viable cells
Conditions in all cases: library dose: low library concentration; 72 h
MZ2-MEL = tested on: MZ2-MEL
MeWo = tested on: MeWo
RPMI7951 = tested on: RPMI7951
RVH-421 = tested on: RVH-421
SkMel28 = tested on: SkMel28
SkMel2 = tested on: SkMel2
SkMel30 = tested on: SkMel30
UACC62 = tested on: UACC62
WM115 = tested on: WM115
WM1716 = tested on: WM1716
WM1745 = tested on: WM1745
WM3526 = tested on: WM3526
WM3619 = tested on: WM3619
WM451Lu = tested on: WM451Lu
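Note: cell number obtained by counting DAPI-stained nuclei in high-throughput microscope images with image analysis software, screen run in 1,536-well plates.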

| SMILES | cell count (MZ2-MEL) [%] | cell count (MeWo) [%] | cell count (RPMI7951) [%] | cell count (RVH-421) [%] | cell count (SkMel28) [%] | cell count (SkMel2) [%] | cell count (SkMel30) [%] | cell count (UACC62) [%] | cell count (WM115) [%] | cell count (WM1716) [%] | cell count (WM1745) [%] | cell count (WM3526) [%] | cell count (WM3619) [%] | cell count (WM451Lu) [%] |
| --- | --- | --- | --- | --- | --- | --- | --- | --- | --- | --- | --- | --- | --- | --- |
| O=C(/C=C/c1cccnc1)NCCCCC1CCN(C(=O)c2ccccc2)CC1 + Cn1c(=O)n(-c2ccc(C(C)(C)C#N)cc2)c2c3cc(-c4cnc5ccccc5c4)ccc3ncc21 [NVP-BEZ235] (first compound 0.01 µM, partner dose 0.004 µM) | 43.9 | 99 | 102 | 49.9 | 65.2 | 42.2 | 84 | 96.2 | 93.1 | 93 | 85.3 | 110 | 93.3 | 97.9 |
| CC1(C)CCC(c2ccc(Cl)cc2)=C(CN2CCN(c3ccc(C(=O)NS(=O)(=O)c4ccc(N[C@H](CCN5CCOCC5)CSc5ccccc5)c(S(=O)(=O)C(F)(F)F)c4)cc3)CC2)C1 + C[C@]1(c2nc3c(C(N)=O)cccc3[nH]2)CCCN1 [Veliparib] (first compound 0.4 µM, partner dose 1.4 µM) | 93.7 | 71.3 | 46.7 | 55 | 81.1 | 84.7 | 70 | 81.9 | 74.8 | 78.1 | 7.19 | 100 | 64.5 | 79.5 |
| O=C(/C=C/c1cccnc1)NCCCCC1CCN(C(=O)c2ccccc2)CC1 + O=C(O)c1ccc2c(c1)nc(Nc1cccc(Cl)c1)c1ccncc12 [CX4945] (first compound 0.01 µM, partner dose 0.4 µM) | 44 | 94.6 | 99.6 | 52.5 | 90 | 30.7 | 97.2 | 105 | 101 | 80.7 | 97.2 | 82.9 | 89.8 | 98 |
| CC1(C)CCC(c2ccc(Cl)cc2)=C(CN2CCN(c3ccc(C(=O)NS(=O)(=O)c4ccc(N[C@H](CCN5CCOCC5)CSc5ccccc5)c(S(=O)(=O)C(F)(F)F)c4)cc3)CC2)C1 + CNC(=O)c1cc(Oc2ccc(NC(=O)Nc3ccc(Cl)c(C(F)(F)F)c3)cc2)ccn1 [sorafenib] (first compound 0.4 µM, partner dose 0.4 µM) | 86.9 | 58.6 | 52.4 | 75.4 | 80.7 | 98.3 | 64.7 | 91.8 | 86.5 | 60.8 | 14.3 | 89.8 | 92.8 | 57.5 |
| Cc1ccc(Nc2nccc(N(C)c3ccc4c(C)n(C)nc4c3)n2)cc1S(N)(=O)=O [Pazopanib] + CCCS(=O)(=O)Nc1ccc(F)c(C(=O)c2c[nH]c3ncc(Cl)cc23)c1F [PLX4720] (first compound 0.4 µM, partner dose 0.08 µM) | 74.5 | 113 | 87.5 | 101 | 100 | 109 | 92.7 | 85.5 | 103 | 101 | 84.1 | 108 | 116 | 111 |
| Cc1ccc(Nc2nccc(N(C)c3ccc4c(C)n(C)nc4c3)n2)cc1S(N)(=O)=O [Pazopanib] + Cc1cc(Nc2cc(N3CCN(C)CC3)nc(/C=C/c3ccccc3)n2)n[nH]1 [ENMD2076] (first compound 0.4 µM, partner dose 0.04 µM) | 69.3 | 101 | 85.6 | 113 | 82.1 | 110 | 88.7 | 94.2 | 90.2 | 86.3 | 106 | 85.5 | 74.9 | 90.6 |
| CC1(C)CCC(c2ccc(Cl)cc2)=C(CN2CCN(c3ccc(C(=O)NS(=O)(=O)c4ccc(N[C@H](CCN5CCOCC5)CSc5ccccc5)c(S(=O)(=O)C(F)(F)F)c4)cc3)CC2)C1 + Cc1nc(Nc2ncc(C(=O)Nc3c(C)cccc3Cl)s2)cc(N2CCN(CCO)CC2)n1 [dasatanib] (first compound 0.4 µM, partner dose 0.004 µM) | 68.4 | 60.2 | 42.5 | 86.8 | 80.3 | 90 | 71 | 91.5 | 72.4 | 66.2 | 4.6 | 108 | 70.5 | 69.3 |
| Cc1ccc(Nc2nccc(N(C)c3ccc4c(C)n(C)nc4c3)n2)cc1S(N)(=O)=O [Pazopanib] + O=C(O)[C@@H]1[O][Sb](=[O])([O][Sb]2(=[O])[O][C@H]([C@H](O)CO)[C@H](O)[C@H](C(=O)O)[O]2)[O][C@H]([C@H](O)CO)[C@@H]1O [stibogluconate] (first compound 0.4 µM, partner dose 2 µM) | 72.9 | 96.5 | 90.1 | 85.9 | 94.7 | 91.6 | 77.4 | 103 | 99 | 73.2 | 100 | 94.2 | 81 | 95.8 |
| Cc1ccc(Nc2nccc(N(C)c3ccc4c(C)n(C)nc4c3)n2)cc1S(N)(=O)=O [Pazopanib] + CN(c1ncccc1CNc1nc(Nc2ccc3c(c2)CC(=O)N3)ncc1C(F)(F)F)S(C)(=O)=O [PF562271] (first compound 0.4 µM, partner dose 0.08 µM) | 64.4 | 109 | 54.9 | 115 | 90.3 | 101 | 93.3 | 96 | 71.6 | 74.5 | 86.1 | 109 | 89.3 | 82.5 |
| CC1(C)CCC(c2ccc(Cl)cc2)=C(CN2CCN(c3ccc(C(=O)NS(=O)(=O)c4ccc(N[C@H](CCN5CCOCC5)CSc5ccccc5)c(S(=O)(=O)C(F)(F)F)c4)cc3)CC2)C1 + OCc1c[nH]c2ccccc12 [Indole-3-carbinol] (first compound 0.4 µM, partner dose 0.8 µM) | 97.6 | 81.8 | 73.2 | 72.1 | 83.9 | 95.1 | 92.2 | 96 | 100 | 91.8 | 11.1 | 89.6 | 96.8 | 96.5 |
| Cc1ccc(Nc2nccc(N(C)c3ccc4c(C)n(C)nc4c3)n2)cc1S(N)(=O)=O [Pazopanib] + C=C(c1ccc(C(=O)O)cc1)c1cc2c(cc1C)C(C)(C)CCC2(C)C [Bexarotene] (first compound 0.4 µM, partner dose 2 µM) | 78 | 108 | 90.7 | 114 | 88.3 | 97.2 | 86.7 | 96.3 | 104 | 77.3 | 95.7 | 78.6 | 111 | 85.7 |
| Cc1ccc(Nc2nccc(N(C)c3ccc4c(C)n(C)nc4c3)n2)cc1S(N)(=O)=O [Pazopanib] + CS(=O)(=O)c1ccc(C(=O)Nc2ccc(Cl)c(-c3ccccn3)c2)c(Cl)c1 [vismodegib] (first compound 0.4 µM, partner dose 1 µM) | 71.5 | 110 | 89 | 88.4 | 95.1 | 93.7 | 73.6 | 98.5 | 100 | 82.9 | 105 | 94.6 | 91.9 | 81.5 |
| Cc1ccc(Nc2nccc(N(C)c3ccc4c(C)n(C)nc4c3)n2)cc1S(N)(=O)=O [Pazopanib] + COc1ccc(Cl)c(Nc2nc3ccccc3nc2NS(=O)(=O)c2cccc(NC(=O)C(C)(C)N)c2)c1 [XL147] (first compound 0.4 µM, partner dose 0.8 µM) | 71.4 | 89 | 90 | 81 | 94.1 | 106 | 89.5 | 85.3 | 89.8 | 83.1 | 90.5 | 108 | 75.5 | 85.9 |
| CC1(C)CCC(c2ccc(Cl)cc2)=C(CN2CCN(c3ccc(C(=O)NS(=O)(=O)c4ccc(N[C@H](CCN5CCOCC5)CSc5ccccc5)c(S(=O)(=O)C(F)(F)F)c4)cc3)CC2)C1 + O=C(O)c1ccc2c(c1)nc(Nc1cccc(Cl)c1)c1ccncc12 [CX4945] (first compound 0.4 µM, partner dose 0.4 µM) | 83.2 | 62.2 | 51.7 | 55.2 | 87.5 | 88.2 | 80.1 | 102 | 67.9 | 30.8 | 8.25 | 66.9 | 78.8 | 64.2 |
| O=C(/C=C/c1cccnc1)NCCCCC1CCN(C(=O)c2ccccc2)CC1 + Clc1ccc(Nc2nnc(Cc3ccncc3)c3ccccc23)cc1 [vatalanib] (first compound 0.01 µM, partner dose 2 µM) | 38.6 | 87.7 | 94.2 | 52.9 | 76.2 | 24.1 | 68.5 | 102 | 96.8 | 98 | 98.1 | 106 | 79.7 | 107 |
| Cc1ccc(Nc2nccc(N(C)c3ccc4c(C)n(C)nc4c3)n2)cc1S(N)(=O)=O [Pazopanib] + Cc1nc(Nc2ncc(C(=O)Nc3c(C)cccc3Cl)s2)cc(N2CCN(CCO)CC2)n1 [dasatanib] (first compound 0.4 µM, partner dose 0.004 µM) | 64.3 | 93 | 76.2 | 94.8 | 80.1 | 97.4 | 90.7 | 87.9 | 82.8 | 81 | 69.4 | 80.7 | 70.7 | 75.8 |
| O=C(/C=C/c1cccnc1)NCCCCC1CCN(C(=O)c2ccccc2)CC1 + C[C@]1(O)C[C@@H](c2nc(-c3ccc4ccc(-c5ccccc5)nc4c3)c3c(N)nccn32)C1 [OSI906] (first compound 0.01 µM, partner dose 0.4 µM) | 42.1 | 99.6 | 112 | 76.7 | 90.5 | 37.8 | 84.6 | 100 | 103 | 110 | 89.2 | 78.5 | 75.7 | 114 |
| Cc1ccc(Nc2nccc(N(C)c3ccc4c(C)n(C)nc4c3)n2)cc1S(N)(=O)=O [Pazopanib] + COc1ccc(C2=N[C@@H](c3ccc(Cl)cc3)[C@@H](c3ccc(Cl)cc3)N2C(=O)N2CCNC(=O)C2)c(OC(C)C)c1 [Nutlin-3] (first compound 0.4 µM, partner dose 0.1 µM) | 69.6 | 92 | 76.8 | 82.1 | 96.8 | 103 | 82.8 | 85.4 | 80.2 | 82 | 88 | 111 | 80.3 | 130 |
